# PMC12820563, “FoxP3 forms a head-to-head dimer in vivo and stabilizes its multimerization on adjacent microsatellites”
# The list shows a part of the results.
# Molecular target: T1, MBP-FoxP1dN (Mus musculus, UniProt P58462 326-579)
# T1 sequence: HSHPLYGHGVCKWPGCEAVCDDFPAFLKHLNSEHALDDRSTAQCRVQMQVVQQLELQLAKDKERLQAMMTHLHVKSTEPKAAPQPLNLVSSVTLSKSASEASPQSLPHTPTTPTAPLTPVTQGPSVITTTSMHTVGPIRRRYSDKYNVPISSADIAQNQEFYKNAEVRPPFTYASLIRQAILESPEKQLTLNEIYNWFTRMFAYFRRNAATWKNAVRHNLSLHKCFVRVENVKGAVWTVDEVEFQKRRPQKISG
# Test: PD-seq (MBP pull-down with sequencing); 20 mM Tris-HCl pH 7.5, 100 mM NaCl, 1.5 mM MgCl2, 0.4 uM protein, 0.1 uM dsDNA library, 30 min, room temperature, amylose pull-down; high values mean tight binding
# Conditions: protein: recombinant; tags: His6-MBP; chain copies: 2; dsDNA, one strand shown
# Summary of the method: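 In Tris pH 7.5 buffer with NaCl and MgCl2, 0.4 µM His6-MBP-tagged mouse FoxP3 or FoxP1 fragment lacking the N-terminus, from E. coli, met 0.1 µM Klenow-filled double-stranded degenerate DNA library for 30 min at room temperature. Three washes on amylose resin followed capture of the complexes, then proteinase K release of DNA, PCR barcoding and Illumina sequencing. Binding is taken as pooled-replicate reads-per-million enrichment of pull-down relative to input.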
row,Sequence,binding signal
1,GATGATTGTTCTCCCAGCTGATGAATTACGCACTTCGAGTAAACAAATTTTCCTAATCTTTCTGTTCAAGCGCCATCTAC,1.12 RPM ratio (pull-down/input)
2,GATGATTGTTCTCCCAGCTGATGAATTCCCCACATCGAGTAAACAAATTTTCCTAATCTTTCTGTTCAAGCGCCATCTAC,0.96 RPM ratio (pull-down/input)
3,GATGATTGTTCTCCCAGCTGATGAATTGGTTGTGTCGAGTAAACAAATTTTCCTAATCTTTCTGTTCAAGCGCCATCTAC,1.2 RPM ratio (pull-down/input)
4,GATGATTGTTCTCCCAGCTGATGAATTGCGTTCGTCGAGTAAACAAATTTTCCTAATCTTTCTGTTCAAGCGCCATCTAC,1.05 RPM ratio (pull-down/input)
5,GATGATTGTTCTCCCAGCTGATGAATTGCAGACATCGAGTAAACAAATTTTCCTAATCTTTCTGTTCAAGCGCCATCTAC,1.21 RPM ratio (pull-down/input)
6,GATGATTGTTCTCCCAGCTGATGAATTCGTCGAGTCGAGTAAACAAATTTTCCTAATCTTTCTGTTCAAGCGCCATCTAC,0.793 RPM ratio (pull-down/input)
7,GATGATTGTTCTCCCAGCTGATGAATTGCAGGATTCGAGTAAACAAATTTTCCTAATCTTTCTGTTCAAGCGCCATCTAC,1.1 RPM ratio (pull-down/input)
8,GATGATTGTTCTCCCAGCTGATGAATTAGTTCCTTCGAGTAAACAAATTTTCCTAATCTTTCTGTTCAAGCGCCATCTAC,0.948 RPM ratio (pull-down/input)
9,GATGATTGTTCTCCCAGCTGATGAATTTGCGTCGTCGAGTAAACAAATTTTCCTAATCTTTCTGTTCAAGCGCCATCTAC,1.08 RPM ratio (pull-down/input)
10,GATGATTGTTCTCCCAGCTGATGAATTATAACGGTCGAGTAAACAAATTTTCCTAATCTTTCTGTTCAAGCGCCATCTAC,1.02 RPM ratio (pull-down/input)
11,GATGATTGTTCTCCCAGCTGATGAATTAGGCAGTTCGAGTAAACAAATTTTCCTAATCTTTCTGTTCAAGCGCCATCTAC,0.819 RPM ratio (pull-down/input)
12,GATGATTGTTCTCCCAGCTGATGAATTAATTGAGTCGAGTAAACAAATTTTCCTAATCTTTCTGTTCAAGCGCCATCTAC,0.932 RPM ratio (pull-down/input)
13,GATGATTGTTCTCCCAGCTGATGAATTCGAGAAATCGAGTAAACAAATTTTCCTAATCTTTCTGTTCAAGCGCCATCTAC,0.923 RPM ratio (pull-down/input)
14,GATGATTGTTCTCCCAGCTGATGAATTTGCAAATTCGAGTAAACAAATTTTCCTAATCTTTCTGTTCAAGCGCCATCTAC,1.07 RPM ratio (pull-down/input)
15,GATGATTGTTCTCCCAGCTGATGAATTTATGGGTTCGAGTAAACAAATTTTCCTAATCTTTCTGTTCAAGCGCCATCTAC,1.06 RPM ratio (pull-down/input)
16,GATGATTGTTCTCCCAGCTGATGAATTGCAGCAGTCGAGTAAACAAATTTTCCTAATCTTTCTGTTCAAGCGCCATCTAC,1.04 RPM ratio (pull-down/input)

row,Sequence,binding signal
1,GATGATTGTTCTCCCAGCTGATGAATTGACGCCATCGAGTAAACAAATTTTCCTAATCTTTCTGTTCAAGCGCCATCTAC,1.24 RPM ratio (pull-down/input)
2,GATGATTGTTCTCCCAGCTGATGAATTGAAAGTGTCGAGTAAACAAATTTTCCTAATCTTTCTGTTCAAGCGCCATCTAC,0.883 RPM ratio (pull-down/input)
3,GATGATTGTTCTCCCAGCTGATGAATTTCCTATATCGAGTAAACAAATTTTCCTAATCTTTCTGTTCAAGCGCCATCTAC,0.903 RPM ratio (pull-down/input)
4,GATGATTGTTCTCCCAGCTGATGAATTATTCCTTTCGAGTAAACAAATTTTCCTAATCTTTCTGTTCAAGCGCCATCTAC,1.01 RPM ratio (pull-down/input)
5,GATGATTGTTCTCCCAGCTGATGAATTGGCCATTTCGAGTAAACAAATTTTCCTAATCTTTCTGTTCAAGCGCCATCTAC,0.857 RPM ratio (pull-down/input)
6,GATGATTGTTCTCCCAGCTGATGAATTATTAAGGTCGAGTAAACAAATTTTCCTAATCTTTCTGTTCAAGCGCCATCTAC,1.05 RPM ratio (pull-down/input)
7,GATGATTGTTCTCCCAGCTGATGAATTACCCATGTCGAGTAAACAAATTTTCCTAATCTTTCTGTTCAAGCGCCATCTAC,0.942 RPM ratio (pull-down/input)
8,GATGATTGTTCTCCCAGCTGATGAATTGTTAGCGTCGAGTAAACAAATTTTCCTAATCTTTCTGTTCAAGCGCCATCTAC,1.26 RPM ratio (pull-down/input)
9,GATGATTGTTCTCCCAGCTGATGAATTCTGGACCTCGAGTAAACAAATTTTCCTAATCTTTCTGTTCAAGCGCCATCTAC,0.712 RPM ratio (pull-down/input)
10,GATGATTGTTCTCCCAGCTGATGAATTAAACTTCTCGAGTAAACAAATTTTCCTAATCTTTCTGTTCAAGCGCCATCTAC,0.857 RPM ratio (pull-down/input)
11,GATGATTGTTCTCCCAGCTGATGAATTAAGCCGTTCGAGTAAACAAATTTTCCTAATCTTTCTGTTCAAGCGCCATCTAC,0.953 RPM ratio (pull-down/input)
12,GATGATTGTTCTCCCAGCTGATGAATTCGATAAATCGAGTAAACAAATTTTCCTAATCTTTCTGTTCAAGCGCCATCTAC,1.13 RPM ratio (pull-down/input)
13,GATGATTGTTCTCCCAGCTGATGAATTATAATCGTCGAGTAAACAAATTTTCCTAATCTTTCTGTTCAAGCGCCATCTAC,1.06 RPM ratio (pull-down/input)
14,GATGATTGTTCTCCCAGCTGATGAATTCTGGCCCTCGAGTAAACAAATTTTCCTAATCTTTCTGTTCAAGCGCCATCTAC,0.782 RPM ratio (pull-down/input)
15,GATGATTGTTCTCCCAGCTGATGAATTGACAGCCTCGAGTAAACAAATTTTCCTAATCTTTCTGTTCAAGCGCCATCTAC,1.03 RPM ratio (pull-down/input)
